Target: T1, tdTomato-CIB2 (mouse, UniProt Q9Z309 1-187)
T1 construct: Expressed in HEK293 cells; used as lysate in co-IP; also called tdTomato tagged CIB2; tdTomato-C1-mCIB2; not shown: tdTomato tag (ptdTomato Vector-C1)
T1 sequence: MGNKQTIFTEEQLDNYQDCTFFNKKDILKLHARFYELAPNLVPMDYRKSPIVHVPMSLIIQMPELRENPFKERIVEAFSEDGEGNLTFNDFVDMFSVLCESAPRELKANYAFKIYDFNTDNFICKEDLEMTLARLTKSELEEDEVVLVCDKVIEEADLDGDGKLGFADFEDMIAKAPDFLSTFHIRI
Assay: co-IP from HEK293 lysates, immunoblot

binding result: binds
B1: HA-GST-Rheb Q64L variant (enzyme)
chain: not shown
notes: also called GTP mimetic; not shown: HA tag and GST tag

Reference: patent publication US20210290727A1 (UNIVERSITY OF MARYLAND BALTIMORE, published 2021)
